Measurements published in the supplement of paper PMC12423691.
Some of the results follow. Binding of human transcription factors and regulators to the viral nucleoprotein by AlphaScreen, crude cell-free proteins, amounts not normalised, one pass. Fold of the Venus control; higher = more signal. No active / inactive call. Single-pass screen; sequences are the whole Swiss-Prot entries looked up by name.

B1: HSFY1, Q96LI6 (protein)
chain: MAHVSSETQDVSPKDELTASEASTRSPLCEHTFPGDSDLRSMIEEHAFQVLSQGSLLESPSYTVCVSEPDKDDDFLSLNFPRKLWKIVESDQFKSISWDENGTCIVINEELFKKEILETKAPYRIFQTDAIKSFVRQLNLYGFSKIQQNFQRSAFLATFLSEEKESSVLSKLKFYYNPNFKRGYPQLLVRVKRRIGVKNASPISTLFNEDFNKKHFRAGANMENHNSALAAEASEESLFSASKNLNMPLTRESSVRQIIANSSVPIRSGFPPPSPSTSVGPSEQIATDQHAILNQLTTIHMHSHSTYMQARGHIVNFITTTTSQYHIISPLQNGYFGLTVEPSAVPTRYPLVSVNEAPYRNMLPAGNPWLQMPTIADRSAAPHSRLALQPSPLDKYHPNYN
B2: POU3F4, P49335 (protein)
chain: MATAASNPYSILSSTSLVHADSAGMQQGSPFRNPQKLLQSDYLQGVPSNGHPLGHHWVTSLSDGGPWSSTLATSPLDQQDVKPGREDLQLGAIIHHRSPHVAHHSPHTNHPNAWGASPAPNPSITSSGQPLNVYSQPGFTVSGMLEHGGLTPPPAAASAQSLHPVLREPPDHGELGSHHCQDHSDEETPTSDELEQFAKQFKQRRIKLGFTQADVGLALGTLYGNVFSQTTICRFEGLQLSFKNMCKLKPLLNKWLEEADSSTGSPTSIDKIAAQGRKRKKRTSIEVSVKGVLETHFLKCPKPAAQEISSLADSLQLEKEVVRVWFCNRRQKEKRMTPPGDQQPHEVYSHTVKTDTSCHDL
B3: HMGA1, P17096 (protein)
chain: MSESSSKSSQPLASKQEKDGTEKRGRGRPRKQPPVSPGTALVGSQKEPSEVPTPKRPRGRPKGSKNKGAAKTRKTTTTPGRKPRGRPKKLEKEEEEGISQESSEEEQ
B4: ZNF322, Q6U7Q0 (protein)
chain: MYTSEEKCNQRTQKRKIYNVCPRKGKKIFIHMHEIIQIDGHIYQCLECKQNFCENLALIMCERTHTGEKPYKCDMCEKTFVQSSDLTSHQRIHNYEKPYKCSKCEKSFWHHLALSGHQRTHAGKKFYTCDICGKNFGQSSDLLVHQRSHTGEKPYLCSECDKCFSRSTNLIRHRRTHTGEKPFKCLECEKAFSGKSDLISHQRTHTGERPYKCNKCEKSYRHRSAFIVHKRVHTGEKPYKCGACEKCFGQKSDLIVHQRVHTGEKPYKCLECMRSFTRSANLIRHQATHTHTFKCLEYEKSFNCSSDLIVHQRIHMEEKPHQWSACESGFLLGMDFVAQQKMRTQTEELHYKYTVCDKSFHQSSALLQHQTVHIGEKPFVCNVSEKGLELSPPHASEASQMS
B5: L3MBTL1, Q9Y468 (protein)
chain: MHLVAGDSPGSGPHLPATAFIIPASSATLGLPSSALDVSCFPREPIHVGAPEQVAGCEPVSATVLPQLSAGPASSSTSTVRLLEWTEAAAPPPGGGLRFRISEYKPLNMAGVEQPPSPELRQEGVTEYEDGGAPAGDGEAGPQQAEDHPQNPPEDPNQDPPEDDSTCQCQACGPHQAAGPDLGSSNDGCPQLFQERSVIVENSSGSTSASELLKPMKKRKRREYQSPSEEESEPEAMEKQEEGKDPEGQPTASTPESEEWSSSQPATGEKKECWSWESYLEEQKAITAPVSLFQDSQAVTHNKNGFKLGMKLEGIDPQHPSMYFILTVAEVCGYRLRLHFDGYSECHDFWVNANSPDIHPAGWFEKTGHKLQPPKGYKEEEFSWSQYLRSTRAQAAPKHLFVSQSHSPPPLGFQVGMKLEAVDRMNPSLVCVASVTDVVDSRFLVHFDNWDDTYDYWCDPSSPYIHPVGWCQKQGKPLTPPQDYPDPDNFCWEKYLEETGASAVPTWAFKVRPPHSFLVNMKLEAVDRRNPALIRVASVEDVEDHRIKIHFDGWSHGYDFWIDADHPDIHPAGWCSKTGHPLQPPLGPREPSSASPGGCPPLSYRSLPHTRTSKYSFHHRKCPTPGCDGSGHVTGKFTAHHCLSGCPLAERNQSRLKAELSDSEASARKKNLSGFSPRKKPRHHGRIGRPPKYRKIPQEDFQTLTPDVVHQSLFMSALSAHPDRSLSVCWEQHCKLLPGVAGISASTVAKWTIDEVFGFVQTLTGCEDQARLFKDEARIVRVTHVSGKTLVWTVAQLGDLVCSDHLQEGKGILETGVHSLLCSLPTHLLAKLSFASDSQY
B6: RGCC, Q9H4X1 (protein)
chain: MKPPAAQGSPAAAAAAAPALDSAAAEDLSDALCEFDAVLADFASPFHERHFHYEEHLERMKRRSSASVSDSSGFSDSESADSLYRNSFSFSDEKLNSPTDSTPALLSATVTPQKAKLGDTKELEAFIADLDKTLASM
B7: TEAD3, Q99594 (protein)
chain: MASNSWNASSSPGEAREDGPEGLDKGLDNDAEGVWSPDIEQSFQEALAIYPPCGRRKIILSDEGKMYGRNELIARYIKLRTGKTRTRKQVSSHIQVLARKKVREYQVGIKAMNLDQVSKDKALQSMASMSSAQIVSASVLQNKFSPPSPLPQAVFSTSSRFWSSPPLLGQQPGPSQDIKPFAQPAYPIQPPLPPTLSSYEPLAPLPSAAASVPVWQDRTIASSRLRLLEYSAFMEVQRDPDTYSKHLFVHIGQTNPAFSDPPLEAVDVRQIYDKFPEKKGGLKELYEKGPPNAFFLVKFWADLNSTIQEGPGAFYGVSSQYSSADSMTISVSTKVCSFGKQVVEKVETEYARLENGRFVYRIHRSPMCEYMINFIHKLKHLPEKYMMNSVLENFTILQVVTSRDSQETLLVIAFVFEVSTSEHGAQHHVYKLVKD
B8: CREM, Q03060 (protein)
chain: MTMETVESQHDGSITASLTESKSAHVQTQTGQNSIPALAQVSVAGSGTRRGSPAVTLVQLPSGQTIHVQGVIQTPQPWVIQSSEIHTVQVAAIAETDESAESEGVIDSHKRREILSRRPSYRKILNELSSDVPGVPKIEEERSEEEGTPPSIATMAVPTSIYQTSTGQYIAIAQGGTIQISNPGSDGVQGLQALTMTNSGAPPPGATIVQYAAQSADGTQQFFVPGSQVVVQDEETELAPSHMAAATGDMPTYQIRAPTAALPQGVVMAASPGSLHSPQQLAEEATRKRELRLMKNREAAKECRRRKKEYVKCLESRVAVLEVQNKKLIEELETLKDICSPKTDY

target: nucleoprotein N of Crimean-Congo hemorrhagic fever virus; test: AlphaScreen luminescence signal relative to Venus negative control (fold); higher = stronger binding to CCHFV N
Procedure: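 AlphaScreen binding of cell-free made, FLAG-GST-tagged human transcription factors and regulators (crude translation products) to biotinylated N protein; signal as fold of the FLAG-GST-Venus control. One pass.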

Binder | AlphaScreen luminescence signal
B1 | 2.33
B2 | 4.42
B3 | 8.42
B4 | 3.12
B5 | 1.49
B6 | 1.02
B7 | 3.07
B8 | 1.77
